# Experimental data published in publication PMC4336329 (PLoS ONE, 2015).
# The campaign covered roughly 310,000 compounds. About 14,000 (4.5%) showed an effect of 50% or more. The effect is printed as a negative number. Some of the results follow.
# Molecular target: human ether-à-go-go-related gene (hERG) potassium channel (human, UniProt Q12809)
# Test: primary screen, population patch clamp on CHO cells stably expressing hERG
# 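Note: peak tail current of the secondary pulse compared with the same well before compound.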
# human ether-à-go-go-related gene (hERG) potassium channel, sequence (Q12809 whole entry, looked up): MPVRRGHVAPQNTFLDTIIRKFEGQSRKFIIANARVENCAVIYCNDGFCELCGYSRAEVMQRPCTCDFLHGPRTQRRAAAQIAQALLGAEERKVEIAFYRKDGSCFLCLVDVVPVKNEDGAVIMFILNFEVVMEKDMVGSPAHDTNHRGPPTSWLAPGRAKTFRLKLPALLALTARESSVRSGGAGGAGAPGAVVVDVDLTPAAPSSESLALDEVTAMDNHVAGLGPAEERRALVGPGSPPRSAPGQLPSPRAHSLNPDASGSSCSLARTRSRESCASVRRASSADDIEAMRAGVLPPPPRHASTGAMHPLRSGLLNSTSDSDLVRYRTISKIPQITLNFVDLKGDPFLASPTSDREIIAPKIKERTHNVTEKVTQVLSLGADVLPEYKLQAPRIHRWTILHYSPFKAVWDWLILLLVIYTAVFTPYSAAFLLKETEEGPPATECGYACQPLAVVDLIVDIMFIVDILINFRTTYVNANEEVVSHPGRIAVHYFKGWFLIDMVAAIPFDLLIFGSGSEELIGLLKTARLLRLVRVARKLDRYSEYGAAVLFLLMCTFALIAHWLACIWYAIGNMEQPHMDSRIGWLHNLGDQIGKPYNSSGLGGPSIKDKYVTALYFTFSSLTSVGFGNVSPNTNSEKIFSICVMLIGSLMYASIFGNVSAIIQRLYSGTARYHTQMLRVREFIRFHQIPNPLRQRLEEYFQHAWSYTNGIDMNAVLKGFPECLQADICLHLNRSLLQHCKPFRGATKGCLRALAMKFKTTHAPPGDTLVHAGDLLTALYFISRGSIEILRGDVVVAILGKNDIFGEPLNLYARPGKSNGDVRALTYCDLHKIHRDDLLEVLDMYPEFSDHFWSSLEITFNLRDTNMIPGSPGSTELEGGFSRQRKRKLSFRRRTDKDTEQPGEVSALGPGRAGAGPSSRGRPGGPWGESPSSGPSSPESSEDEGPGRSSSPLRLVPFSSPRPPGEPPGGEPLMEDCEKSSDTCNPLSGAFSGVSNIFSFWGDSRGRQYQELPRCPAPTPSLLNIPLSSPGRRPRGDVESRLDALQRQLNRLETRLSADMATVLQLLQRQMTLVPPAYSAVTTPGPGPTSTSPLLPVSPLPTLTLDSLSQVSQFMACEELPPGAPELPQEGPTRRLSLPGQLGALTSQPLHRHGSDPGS
row,Compound,"hERG current change (%, negative = inhibition) at 10uM"
1,CCCn1c(N)c(N(CCOC)C(=O)CSCC(=O)Nc2ccc(OC)cc2)c(=O)[nH]c1=O,-30.8%
2,CC(C)NC(=O)Cn1c(SCC(=O)N2CCc3ccccc3C2)nc2ccccc21,-13.2%
3,O=c1c(C=NCC2CCCO2)c(-c2ccccc2)[nH]n1-c1ccc([N+](=O)[O-])cc1 (centres unmarked),7.58%
4,CCC(=O)Nc1c2c(nn1-c1ccccc1)CSC2,13.1%
5,Cc1cc(CSC(=N)N)c(CSC(=N)N)cc1C,5.65%
6,CC(C)(C)c1ccc(CCC(CC(=O)O)CC(=O)O)cc1,-11.9%
7,C=CCc1ccccc1OCC(=O)N/N=C/c1ccccc1OCC,7.85%
8,CC(=O)N1CC[n+]2c(-c3ccc([N+](=O)[O-])cc3)csc21.[Br-],-68.9%
9,O=C(C1CC1)N1CCc2cc(S(=O)(=O)N3CCOCC3)ccc21,-0.00762%
10,COc1cc(/C=N/NC(=O)CNC(=O)c2ccc3c(c2)OCCO3)ccc1O,1.98%
11,CC(C)c1ccc(CNC(=O)C2CCCN2S(=O)(=O)c2ccccc2)cc1 (centres unmarked),-2.57%
12,COc1ccc(C(CNC(=O)c2cccc(S(=O)(=O)Nc3ccccc3Cl)c2)N2CCOCC2)cc1 (centres unmarked),9.73%
13,Cc1c(Cl)cccc1NC(=O)COC(=O)CN1C(=O)NC(C)(C)C1=O,-0.465%
14,COCCN1C(=O)N(c2cccc(OC)c2)C(=O)C1CC(=O)Nc1ccc(Cl)cc1 (centres unmarked),3.54%
15,CCOC(=O)/C(C#N)=N/Nc1c(C)n(C)n(-c2ccccc2)c1=O,18.7%
16,COc1cccc(CNc2ccc(F)c(Cl)c2)c1OC,2.93%
17,CCC(=O)Nc1ccc(NC(=O)c2ccccc2)nc1,-15.7%
18,CCCS(=O)(=O)C(=C(Nc1ccc(OC)cc1)Nc1ccc(OC)cc1)S(=O)(=O)CCC,-2.24%
19,COc1ccc(C(=O)CC(=O)C(=O)Nc2cccc(C(C)=O)c2)cc1,29.9%
20,Cc1cc(=O)oc2c(CN(C)Cc3ccccc3)c(O)ccc12,-12.6%
21,CCOC(=O)/C(=N/Nc1ccc(Cl)cc1)Sc1nnnn1-c1ccc(C)cc1,23.3%
22,O=C1C2CCCN2C(c2ccccc2)N1c1ccccn1 (centres unmarked),8.79%

row,Compound,"hERG current change (%, negative = inhibition) at 10uM"
1,CCC(C)[C@H](NC(=O)NCc1ccc(S(N)(=O)=O)cc1)C(=O)OC (some centres unmarked),3.14%
2,Nc1nc(SCC(=O)NC2CCCC2)[nH]c(=O)c1NC(=O)c1cccs1,-0.849%
3,CCCC(=O)NC(Oc1ccc(OC)cc1)C(Cl)(Cl)Cl (centres unmarked),-0.123%
4,CCOc1cccc(C2C(C#N)=C(N)Oc3cc(C)oc(=O)c32)c1OCC (centres unmarked),4.23%
5,O=C(c1ccccc1)N1CCN(C(=O)N2CCCCC2)CC1,7.37%
6,C=CCN(C(=O)c1ccccn1)C(C(=O)NCc1ccccc1)c1ccccc1F (centres unmarked),10.8%
7,C=CCc1ccc(OCCOCCOc2ccc(C)cc2[N+](=O)[O-])c(OC)c1,-37.8%
8,Cc1cccc(NC(=S)NC2CC3CCCC(C2)N3Cc2cccs2)c1C (centres unmarked),-37.9%
9,CCC(c1nnc(SCC(=O)Nc2ccc(C(C)=O)cc2)n1C1CCCCC1)N(C)C (centres unmarked),-9.96%
10,CCC(C(=O)Nc1ccc(Cl)cc1)N1CCCC1=O (centres unmarked),2.42%
11,O=C(COC(=O)c1ccc(F)c(S(=O)(=O)N2CCOCC2)c1)NC1CCCCC1,-4.84%
12,N#CCCNC(=O)Cn1c(COc2ccc(Cl)cc2)nc2ccccc21,-24.5%
13,Cc1ccc(NC(=O)c2ccccn2)c(Br)c1,19.8%
14,CC1CC(C)(C)CC2(C1)NC(=O)N(CC(=O)OCc1ccc(Br)cc1)C2=O (centres unmarked),3.04%
15,O=C(c1ccncc1)C12CN3CN(CN(C3)C1)C2,3.73%
16,Cc1cccn2c(=O)c(/C=N/O)c(NCc3ccccc3)nc12,8.18%
17,COC(=O)c1ccc(NC(=O)c2c(Br)cnn2C)cc1,11.8%
18,CCCCC(CC(C)O)c1n[nH]c(=S)n1-c1ccccc1 (centres unmarked),3.1%
19,Cc1ccc(NC(=O)CCCCCN2C(=O)[C@@H]3Cc4ccccc4CN3C2=O)c(Cl)c1,-20.1%
20,CCCCNC(=O)C1CCCN(S(=O)(=O)c2c(C)noc2/C=C/c2cccs2)C1 (centres unmarked),-21.8%
21,CCOc1ccc(S(=O)(=O)NC(C)(C)C)cc1-c1nc2c(C(C)(C)C)nn(C)c2c(=O)[nH]1,-3.83%
22,CC(C)C(NC(=O)C(C)N1C(=O)c2ccccc2C1=O)c1ccccc1 (centres unmarked),12.2%
